Results: the supplement of paper PMC6531468
Some of the results follow. Read counts after selection give these values, which scatter widely. Scores sum up all selected molecules that hold the word; the word was not tested alone.

tested on: IMP3 KH1-2; assay: 6-mer SELEX enrichment z-score vs GST control; IMP3 is the RNA-binding protein IGF2BP3; higher = more enriched by binding; details: construct: KH1-2 (164-376); SELEX round: R4
Method: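 SELEX-seq with GST-tagged IMP3 KH1-2 (Pro164-Phe376) and an N40 RNA pool, round 4 (stringent 300/600 mM KCl washes). 6-mer z-score of sequence-tag enrichment normalised to the corresponding GST SELEX round; RNA k-mers written as DNA (T for U).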

Chain of IMP3 KH1-2 (chain, as listed by the source): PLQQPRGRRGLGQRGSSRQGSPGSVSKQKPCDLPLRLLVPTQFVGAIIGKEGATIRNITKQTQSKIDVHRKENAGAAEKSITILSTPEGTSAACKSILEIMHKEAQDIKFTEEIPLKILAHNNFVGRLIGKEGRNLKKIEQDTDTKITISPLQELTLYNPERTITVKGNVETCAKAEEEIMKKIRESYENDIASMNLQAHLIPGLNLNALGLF

Row | Sequence | 6-mer SELEX enrichment z-score
1 | CTCAGC | -0.977
2 | TTGTTT | 0.266
3 | CGTGTA | -0.38
4 | CATTAA | 1.32
5 | ATGGAC | 0.311
6 | CATCTT | 0.275
7 | GGGTCA | 0.166
8 | AGGTTT | 0.015
9 | TTAATC | 0.64
10 | AGAGGT | 0.225
11 | ACTAGA | 0
12 | ATCAAT | 1.45
13 | AACAAA | 0.449
14 | CGTATA | -0.268
15 | AAGGAG | 0.393
16 | AATTGA | -0.061
17 | TTTTAG | 0.439
18 | ATTACG | 0.606
19 | CGGGAC | -0.364
20 | GCGATC | -0.617

Row | Sequence | 6-mer SELEX enrichment z-score
21 | TGACTG | 0.038
22 | GGACGT | -0.592
23 | TTGCGA | -0.671
24 | AAAGAG | -1.18
25 | ACTTTC | 0.92
26 | AACCCA | -2.95
27 | GACGCG | -1.03
28 | GACAAG | -0.268
29 | AATTGT | 0.237
30 | GTAAGT | -0.018
31 | TAATGA | 0.703
32 | AGCGCA | -1.3
33 | TAGATA | 0.515
34 | TGGGGC | 0.681
35 | CCCTTA | 0.172
36 | CGTTTA | -0.094
37 | GTTAGT | 0.087
38 | AACCAG | -0.674
39 | TTCCTA | 0.494
40 | CAACCT | -0.836
